# Measurements taken from PubChem BioAssay (Tox21).
# Where “and” joins values, the source holds several entries; their conditions need not be identical. Equal values may be shown once. The shares of active, inactive and inconclusive entries below differ from those in the screen. For some assays here: Where the call is inconclusive, the potency comes from a doubtful curve fit. Calls of active or inactive are those of the source. Calls come from the whole dose curve; as a rule, active = well fitted curve in the direction sought with a large enough effect in the repeat runs; inconclusive = weak or mixed curves; inactive = no such curve, though single readings can be large; an effect the other way counts as inactive or inconclusive.
# What was measured:
# [1] = A CellTox Green Cytotoxicity Assay to monitor cytotoxicity in HepG2 cells - 24 hour (AID 1224878); note: nearly all actives have a fitted effect of over 45% in size; note: potency is the fitted concentration of half-maximal effect
# In short: (§1)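 Real-time, homogeneous cytotoxicity readout: dead-cell DNA staining by CellTox Green in HepG2 monolayers, fluorescence measured at timed intervals up to 40 h of continuous compound exposure.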
# [2] = A CellTox Green Cytotoxicity Assay to monitor cytotoxicity in HepG2 cells - 32 hour (AID 1224883); note: nearly all actives have a fitted effect of over 50% in size; note: potency is the fitted concentration of half-maximal effect
# In short: as §1
# [3] = qHTS RealTime-Glo MT Cell Viability Assay in HepG2 cells - 16 hour (AID 1224885); note: potency is the fitted concentration of half-maximal effect; nearly all actives have a fitted effect of over 50% in size
# In short: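 Real-time, nonlytic viability: 600 HepG2 cells/well mixed with NanoLuc enzyme plus prosubstrate; 5 h settle, compound (DMSO) added by pintool; luminescence monitored over 40 h at 37 C.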
# [4] = qHTS RealTime-Glo MT Cell Viability Assay in HEK293 cells - 24 hour (AID 1224886); note: potency is the fitted concentration of half-maximal effect; nearly all actives have a fitted effect of over 50% in size
# In short: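 Cells + reagent dispensed (600 cells/well, HEK293) → 5 h at 37 C/5% CO2 → 23 nL compound in DMSO pinned → 40 h at 37 C → luminescence read at 0, 8, 16, 24, 32, 40 h.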
# [5] = qHTS RealTime-Glo MT Cell Viability Assay in HEK293 cells - 8 hour (AID 1224887); note: potency is the fitted concentration of half-maximal effect; nearly all actives have a fitted effect of over 50% in size
# In short: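 Nonlytic bioluminescent viability monitoring. HEK293 at 600 cells/well with reagent; 5 h settle; compound transfer by pintool; plates held at 37 C and read at set time points.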
# [6] = qHTS assay to identify small molecule antagonists of the estrogen receptor alpha (ER-alpha) signaling pathway using the BG1 cell line in the presence of 0.1 nM 17-beta-estradiol - cell viability counter screen (AID 1259241); note: potency is the fitted concentration of half-maximal effect; nearly all actives have a fitted effect of over 40% in size
# In short: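 CellTiter-Fluor read (30 min, 37C) on ER-alpha/ERE-luc VM7Luc4E2 cells; 22 hr compound treatment; agonist 0.1 nM E2 final; same-well multiplex.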
# [7] = A CellTox Green Cytotoxicity Assay to monitor cytotoxicity in HepG2 cells - 40 hour (AID 1224879); note: nearly all actives have a fitted effect of over 40% in size; note: potency is the fitted concentration of half-maximal effect
# In short: as §1
# [8] = qHTS assay to identify small molecule antagonists of the androgen receptor (AR) signaling pathway using the MDA cell line in the presence of 0.5 nM R1881 - cell viability counter screen (AID 1259242); note: nearly all actives have a fitted effect of over 45% in size; note: potency is the fitted concentration of half-maximal effect
# In short: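 Cytotoxicity toward MDA-kb2 cells is measured by CellTiter-Fluor live-cell protease fluorescence after 16 hr compound exposure at 37C in the presence of 0.5 nM R1881 stimulator.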
# [9] = A CellTox Green Cytotoxicity Assay to monitor cytotoxicity in HEK293 cells - 32 hour (AID 1224881); note: nearly all actives have a fitted effect of over 40% in size
# In short: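 Cytotoxicity was tracked continuously in HEK293 cells by a DNA-binding dye excluded from viable cells. Compounds were transferred in DMSO 5 h after seeding; fluorescence was recorded at intervals up to 40 h.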
# Tags give direction and shape of the fitted curve.
smiles,measurement,setting,value
Cc1cc2c3c(c1)C(c1ccccc1)=N[C@@H](NC(=O)c1ccncc1)C(=O)N3CC2,Potency,[1],inactive
same,Potency,[2],inactive
CCN(CC)C(=S)[S-].CCN(CC)C(=S)[S-].[Zn+2],Potency,[1],active: 12.2 µM
same,Potency,[3],active: 13.7 µM
same,Potency,[4],active: 4.86 µM
same,Potency,[5],"inconclusive: 5.45 µM [cytotoxic, full curve]"
same,Potency,[6],active: 1.92 µM
CC(=O)[O-].CC(=O)[O-].O.O.O.[Pb+2],Potency,[7],inactive
CCNc1nc(NC(C)C)nc(SC)n1,Potency,[1],inactive
same,Potency,[8],inactive
CCCC[n+]1ccccc1,Potency,[7],"inconclusive: 21.9 µM [activator, single point]"
N#Cc1cc(Br)c(O)c(Br)c1,Potency,[7],inactive
O=C(NCc1cccnc1)Nc1ccc([N+](=O)[O-])cc1,Potency,[7],inactive
Clc1ccc(C(Cl)(Cl)Cl)cc1,Potency,[7],"inconclusive: 17.6 µM [activator, full curve, poor fit]"
COc1ccc(C=O)cc1,Potency,[7],inactive
COc1ccc(N)cc1N,Potency,[7],"inconclusive: 56.7 µM [activator, single point]"
same,Potency,[9],inactive
same,Potency,[2],"inconclusive: 56.7 µM [activator, single point]"
same,Potency,[3],"inconclusive: 56.7 µM [cytotoxic, partial curve, poor fit]"
same,Potency,[4],"active: 40.1 µM and inconclusive: 29.7 µM [cytotoxic, single point]"
same,Potency,[5],"active: 25.3 µM and inconclusive: 26.4 µM [cytotoxic, partial curve]"
same,Potency,[6],"inconclusive: 70.8 µM [cytotoxic, single point] and inconclusive: 37 µM [cytotoxic, single point]"
same,Potency,[8],"inconclusive: 70.8 µM [cytotoxic, single point] and inconclusive: 37 µM [cytotoxic, single point]"
